Results taken from PubChem BioAssay AID686978 (National Center for Advancing Translational Sciences (NCATS), 2013).
Values joined by “and” are separate entries in the source; they are usually repeats but may differ in a detail not shown here. Identical values can stand only once. In all, about 420,000 compounds went through this assay and about 64,000 (15%) were called active. Inconclusive means that the source gave no clear call. Such entries were picked first, then a sample of the others. The call rests on the fitted dose curve; in most records, active means well fitted inhibition curve with a large enough effect; inconclusive means small, poorly fitted or top-dose-only effect; inactive means flat fitted curve, though single readings scatter. Where the call is inconclusive, the potency comes from a doubtful curve fit. The source holds several records for some structures; these can differ, active in one and inactive in another.
On the % scale 0 is the no-effect control and ±100 the full control effect; potency means the concentration at half of the fitted maximal effect; tags describe the fitted curve by direction and shape.

Test: qHTS for Inhibitors of human tyrosyl-DNA phosphodiesterase 1 (TDP1): qHTS in cells in absence of CPT; further: nearly all actives have a fitted effect of over 55% in size
Conditions: DT40 Tdp1-/- hTDP1 cells, no CPT, ATP luminescence, 48 h; activity change, negative = growth inhibition: at 46.2 µM (top of the series) unless noted
How it was run: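 Growth of hTDP1-complemented DT40 Tdp1-knockout cells is measured by ATP luminescence after at least 48 hr compound exposure at 37 °C, with DMSO substituting for the 20 nM CPT used in the parallel screen.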
In the case of COc1ccccc1CNC(=O)c1cc2c(-c3ccc(Cl)cc3)nn(C)c2s1, the Potency is reported as inconclusive: 18.4 µM [inhibitor, partial curve].
In the case of CSc1ncc(-c2ccc(Cl)cc2)[nH]1, the Potency is reported as “inactive”.
For Cc1nnsc1C(=O)N1CCCC(C(=O)c2ccc(C(F)(F)F)cc2)C1 (centres undefined), the Potency was inconclusive: 23.1 µM [inhibitor, single point].
In the case of O=C(C[C@H]1C/C=C\C[C@H](Cc2ccc(F)cc2)C(=O)O[C@@H](c2ccccc2)CNC1=O)N[C@H](CO)Cc1ccccc1, the Potency is reported as active: 10.3 µM.
With COc1ccccc1CNC(=O)C1CCN(C(=O)c2sccc2-n2cccc2)CC1 the Potency was “inactive and inconclusive: 25.9 µM [inhibitor, single point]”.
For Fc1ccc(-n2c(-c3ccc4ccccc4n3)n[nH]c2=S)cc1Cl, the Potency was inconclusive: 16.4 µM [inhibitor, single point].
With COc1ccc([C@H]2CC(=O)C=C(c3cccc(Cl)c3O)C2)cc1OC the Potency was inconclusive: 29.1 µM [inhibitor, single point].
In the case of COc1cc(-c2noc(C)c2C(=O)NCCc2ccccc2)cc(OC)c1OC, the Potency is reported as inconclusive: 14.6 µM [inhibitor, partial curve].
With CN(C1CCCCC1)S(=O)(=O)c1ccc2c(c1)c(=O)c(C(=O)NCc1ccc(F)cc1)cn2C the Potency was “inactive”.
In the case of O=C(c1sc2cc(F)ccc2c1Cl)N1CCN(c2ccccc2)CC1, the activity change, negative = growth inhibition is reported as inconclusive: -35.2% [inhibitor].
In the case of O=C(CN1CCN(c2ccccn2)CC1)Nc1cccc(Cl)c1Cl, the Potency is reported as inconclusive: 29.1 µM [inhibitor, single point].
With CCc1ccccc1NC(=O)CN1C(=O)CCSc2ccc(S(=O)(=O)N3CCCC3)cc21 the Potency was inconclusive: 29.1 µM [inhibitor, single point].
In the case of Cc1cc(=O)c2c([nH]1)c(C)cc1[nH]c(C)c(C)c12, the Potency is reported as inconclusive: 18.4 µM [inhibitor, partial curve].
For CSc1ccccc1NC(=O)C1(C)CCN1C(=O)Cc1ccccc1Cl (centres undefined), the Potency was “inactive”.
With Clc1ccccc1-c1nc(N2CCNCC2)c2ccccc2n1 the Potency was “inactive”.
For Cc1ccc(C)c(N2CCN(S(=O)(=O)c3c(C)[nH]c(C)c3C(=O)N3CCCCC3)CC2)c1, the Potency was inconclusive: 20.6 µM [inhibitor, single point].
In the case of CCCc1[nH]n(-c2ccc(F)cc2)c(=O)c1C=Nc1ccc(C)cc1, the Potency is reported as inconclusive: 25.9 µM [inhibitor, partial curve, poor fit].
With CC(=O)[C@@H]1[C@H]2[C@H](C(=O)[C@H]3OC[C@@H]2O3)[C@H]2C=Cc3ccccc3N21 the Potency was active: 21.1 µM.
With COc1ccc(S(=O)(=O)N2CCOC23CCN(S(=O)(=O)c2ccc(C)cc2)CC3)cc1 the Potency was inconclusive: 29.1 µM [inhibitor, single point].
With CCN(CC)S(=O)(=O)c1ccc2c(c1)nc(CN(C)C(=O)Nc1ccc(C)c(F)c1)n2C the Potency was inconclusive: 0.651 µM [inhibitor, full curve, poor fit].
In the case of CCc1noc(C)c1C(=O)OCC(=O)Nc1ncc(Cl)cc1Cl, the Potency is reported as “inactive”.
In the case of CCc1ccccc1NC(=O)C(C)n1c(=O)cc(C)c2c(C)nn(-c3ccccc3)c21 (centres undefined), the Potency is reported as “inactive”.
In the case of Cn1c(=O)c2c(nc(SCC(=O)c3cccs3)n2Cc2ccc(F)cc2)n(C)c1=O, the Potency is reported as active: 11.6 µM.
For COC(=O)c1ccc(CSc2nc3c([nH]c4ccccc43)c(=O)n2-c2cccc(Cl)c2)o1, the Potency was inconclusive: 20.6 µM [inhibitor, single point].
For O=C(NCCCN1CCCC1=O)c1cccc(Oc2ccccc2)c1, the Potency was inconclusive: 25.9 µM [inhibitor, single point].
In the case of O=[N+]([O-])c1cncn1CCN1CCOCC1, the Potency is reported as inconclusive: 29.1 µM [inhibitor, single point].
In the case of Cc1ccc(NC(=S)NNC(=O)c2ccco2)cc1, the Potency is reported as “inactive”.
With O=C(Nc1ccc(F)cc1)C1CCCN(S(=O)(=O)c2ccc(-n3cnnn3)cc2)C1 (centres undefined) the Potency was “inactive”.
In the case of O=C1NC[C@@H](Cc2cccc3ccccc23)N(CCc2cccc(F)c2)C1=O, the Potency is reported as inconclusive: 16.4 µM [inhibitor, partial curve].
With O=[N+]([O-])c1ccc(NN=Cc2cccc3ccccc23)nc1 the Potency was inconclusive: 29.1 µM [inhibitor, single point].
For Cc1ccc(-n2nnnc2C(Cl)c2nnnn2-c2ccc(C)cc2)cc1, the Potency was active: 8.2 µM.
With COc1ccc(N2CCN(c3cc(C(=O)NC4CCCCC4)ncn3)CC2)cc1OC the Potency was inconclusive: 25.9 µM [inhibitor, single point].
In the case of Cc1cccc(C(=O)N2CCC(=O)N([C@H](COCc3cccc(Cl)c3)Cc3ccccc3)CC2)c1, the Potency is reported as active: 18.4 µM.
In the case of COc1ccc(N2CCN(C(=O)COCc3cc(-c4ccc5c(c4)OCO5)on3)CC2)cc1, the Potency is reported as active: 18.4 µM.
For CC(=O)Nc1ccc(NC(=O)CCC(=O)OCC(=O)c2ccc(F)cc2)cc1, the Potency was “inactive”.
In the case of Cc1nn2c(COc3ccc(NC(=O)c4ccccc4)cc3)nnc2c2ccccc12, the Potency is reported as inconclusive: 20.6 µM [inhibitor, single point].
With Cc1ccc(S(=O)(=O)N2C[C@H]3[C@H]4C(=O)N(c5ccccc5)C(=O)[C@H]4C[C@H](OC(=O)NCC4CCCCC4)[C@@]3(O)C2)cc1 the Potency was “inactive”.
With CC/C(=N/NC(=O)c1ccccc1O)c1c(C)[nH]n(-c2ccccc2)c1=O the Potency was active: 1.84 µM.
For COc1ccccc1NC(=O)c1cc2c(C)nn(-c3ccccc3)c2s1, the Potency was active: 23.1 µM.
With CC1(C)CC(=O)/C(=C(\O)Cc2ccccc2)C(=NCCCCCC(=O)O)C1 the Potency was inconclusive: 16.4 µM [inhibitor, single point].
For Cc1cccc(OCC(=O)NC(=S)Nc2ccccc2N2CCOCC2)c1C, the Potency was “inactive”.
In the case of Cc1ccc(NC(=O)c2nc(S(C)(=O)=O)ncc2N(Cc2ccco2)Cc2cccs2)cc1C, the Potency is reported as inconclusive: 29.1 µM [inhibitor, single point].
In the case of Cc1ccc(SC(c2ccccc2)C(Cn2cncn2)C(=O)c2ccccc2)cc1 (centres undefined), the Potency is reported as inconclusive: 25.9 µM [inhibitor, single point].
In the case of Cc1ccc2c(Cl)c(C(=O)N/N=C/c3cccn3C)sc2c1, the Potency is reported as active: 8.2 µM.
In the case of O=C(C/C=N\OCc1ccc(Cl)cc1Cl)Nc1ccccc1, the Potency is reported as “inactive”.
For Brc1ccc(-c2nnc3sc(CNCc4ccc5c(c4)OCO5)cn23)cc1, the Potency was “inactive”.
In the case of O=c1[nH]nc(Cc2ccc([N+](=O)[O-])cc2)c2ccccc12, the activity change, negative = growth inhibition is reported as inconclusive: -36.9% [inhibitor].
In the case of CCOC(=O)C1(CCOc2ccccc2)CCN(Cc2ccc(OC)c(COC)c2)CC1, the Potency is reported as active: 18.4 µM.
For O=C(NC1CCN(Cc2ccccc2)CC1)c1ccc(Cn2c(=O)c3ccccc3n(Cc3ccc(F)cc3)c2=O)cc1, the Potency was inconclusive: 23.1 µM [inhibitor, single point].
With O=C1N/C(=C/c2ccc(N3CCOCC3)o2)C(=O)N1c1ccccc1 the Potency was active: 9.2 µM.
In the case of CCOc1ccc(-n2c(C)nc3cc(C(=O)NCc4ccc5c(c4)OCO5)ccc32)cc1, the Potency is reported as inconclusive: 23.1 µM [inhibitor, single point].
In the case of CCc1cccc(CC)c1NC(=O)CN1C2CCCC1CC(NC(=O)Nc1cccc(OC)c1)C2 (centres undefined), the Potency is reported as inconclusive: 18.4 µM [inhibitor, single point].
In the case of O=c1ccc2c(-c3ccccc3)c3ccc(O)cc3oc-2c1, the Potency is reported as inconclusive: 20.6 µM [inhibitor, partial curve].
With CCCOC(=O)c1ccc(NC(=O)C2C3C=CC(O3)C2C(=O)O)cc1 (centres undefined) the Potency was “inactive”.
For COc1ccc(CCNC(=O)c2ccc(CNS(=O)(=O)c3ccc(C(C)(C)C)cc3)cc2)cc1OC, the Potency was inconclusive: 3.66 µM [inhibitor, partial curve, poor fit].
With COc1cc(CNC(=O)Nc2nnc([C@@H]3C[C@H](O)[C@@H](CO)O3)s2)cc(OC)c1OC the Potency was “inactive”.
With O=C(O)c1nn(CCOc2ccc(Cl)cc2Cl)c(=O)c2ccccc12 the activity change, negative = growth inhibition was inconclusive: -33.2% [inhibitor].
With CC1CCCCC1NC(=O)CCCCCn1c(=S)[nH]c2ccsc2c1=O (centres undefined) the Potency was inconclusive: 25.9 µM [inhibitor, single point].
With CC1CCN(C(C)C(=O)Nc2ccccc2-c2ccccc2)CC1 (centres undefined) the Potency was inconclusive: 29.1 µM [inhibitor, single point].
In the case of O=c1c(-c2ccco2)[n+]([O-])c2ccccc2n1OCc1ccccn1, the Potency is reported as “inactive”.
In the case of COc1ccc(NC(=O)COc2ccc3c(C)cc(=O)oc3c2)cc1S(=O)(=O)N1CCCCC1, the Potency is reported as inconclusive: 5.8 µM [inhibitor, partial curve].
In the case of Cn1c(=O)cc(SCC(=O)N2CCN(c3ccccc3F)CC2)c2ccc(Cl)cc21, the Potency is reported as inconclusive: 18.4 µM [inhibitor, single point].
In the case of COCn1c(COc2ccccc2)nc2ccccc21, the Potency is reported as inconclusive: 13 µM [inhibitor, partial curve].
In the case of O=C(CSCSCC(=O)Nc1ccc2c(c1)OCO2)Nc1ccc2c(c1)OCO2, the Potency is reported as inconclusive: 13 µM [inhibitor, partial curve].
In the case of COc1ccc(NC(=O)CSc2nnc(Cn3c(=O)sc4ccccc43)n2C)c(OC)c1, the Potency is reported as “inactive”.
With Cc1ccccc1NC(=O)COc1coc(CN2CCN(c3ccccc3)CC2)cc1=O the Potency was inconclusive: 18.4 µM [inhibitor, single point].
In the case of Cn1cc(/C=C/c2cc[n+](C)cc2)c2cc(F)ccc21, the Potency is reported as active: 0.58 µM.
In the case of O=C1NN(c2ccccc2)C(=O)/C1=C/c1ccc(Sc2cccc3ccccc23)o1, the Potency is reported as “inactive”.
For CCc1nc2sc3ccccc3c(=O)c2c(=O)n1Cc1ccc(OC)cc1, the Potency was inconclusive: 29.1 µM [inhibitor, single point].
